Results taken from PubChem BioAssay AID493208 (National Center for Advancing Translational Sciences (NCATS), 2011).
About 340 (0.77%) of roughly 44,000 compounds were called active. Inconclusive results (about 5%) are left out. The call rests on the fitted dose curve; in most records, active means well fitted inhibition curve with a large enough effect; inconclusive means small, poorly fitted or top-dose-only effect; inactive means flat fitted curve, though single readings scatter. The list shows a part of the results.

Assay: Acumen qHTS Assay for Inhibitors of the mTORC1 Signaling Pathway in MEF (Tsc2-/-, p53-/-) Cells: Sytravon;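 further: plate controls were DMSO for no effect and rapamycin for full effect; nearly all actives have a fitted effect of over 50% in size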
Details: phospho-rpS6 immunofluorescence/PI, 24 h; series mostly up to 38.3 µM; activity change, negative = inhibition: at the top concentration
How it was run: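 Read-out: phospho-S6 Alexa-488 intensity over PI intensity per well, scored as % active cells using thresholds from rapamycin (7.5 nM) and DMSO controls. Tsc2-/-, p53-/- MEFs exposed to compound for 24 h; PI cell count recorded as viability.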

Activity change, negative = inhibition, inactive:
Cc1cccc(CNC(=O)C2CCN(S(=O)(=O)c3cccc4nonc34)CC2)c1 -3.03%
CCC1=Nc2cc(C(=O)N3CCC(C)CC3)ccc2Sc2ccc(C)cc21 2.95%
Cc1ccc(C)c(NC(=O)C2CCCN2S(=O)(=O)c2ccc3c(c2)CCCC(=O)N3)c1 (stereo not drawn) 5.64%
COc1ccc(-c2noc(CNC(=O)c3ccc(OC)cc3OC)n2)cc1 -6.57%
COc1cccc(-c2noc(COc3cccc(C)c3C)n2)c1 3.37%
CCOc1ccc(CCNC(=O)C2CC(=O)N(CCc3ccc(OC)c(OC)c3)C2)cc1OCC (stereo not drawn) 11.4%
Cc1ccc2nc(N3CCN(c4ccc(F)cc4)CC3)c3nnnn3c2c1 -8.95%
CCOC(=O)c1c(NC(=O)COc2ccc(OC)cc2)sc(C(=O)N(CC)CC)c1C -0.669%
CCCCN(CC)CCNC(=O)c1nn(-c2ccc(OC)cc2)c(=O)c2c1c1ccccc1n2C 1.34%
N#C/C(=C\c1ccccc1)c1nc(-c2cc3c(ccc4ccccc43)oc2=O)cs1 8.34%
CCOC(=O)c1cccc(NC(=O)Cn2cnc3nc4c(cc3c2=O)CCCC4)c1 0.279%
CCN(CC)CCCNC(=O)c1ccc2c(c1)NC(=O)C(CS(=O)(=O)Cc1ccc(F)cc1Cl)N2 (stereo not drawn) 0%
COCCNC(=O)c1sc2nc3n(c(=O)c2c1C)CCC3 5.9%
COc1ccc(N2CC(c3nc(-c4ccccc4C)no3)CC2=O)cc1Cl (stereo not drawn) -3.76%
CCc1ccc(NS(=O)(=O)c2ccc3[nH]cc(C(=O)NCCc4ccccc4)c(=O)c3c2)cc1 -7.22%
Cc1ccc(-c2onc(C)c2C)cc1S(=O)(=O)N1CCc2ccccc21 11.1%
Cc1cccc(CCNC(=O)CCc2c(C)nc3c(-c4ccc(F)cc4)c(C)nn3c2C)c1 -11.2%
CN1CCN(c2ccc(-c3nc(-c4ccccc4)no3)cc2[N+](=O)[O-])CC1 -11.3%
COC(=O)c1ccc(NC(=O)C(c2ccccc2)N2Cc3ccccc3C2=O)cc1 (stereo not drawn) 0.469%
Cc1nc(-c2ccc(Cl)cc2)sc1CCNC(=O)C(=O)Nc1ccccc1C#N 1.77%
COc1ccc(N2CCN(C(=O)c3cc4c(s3)-c3c(C)cccc3OC4)CC2)cc1 -6.34%
Cc1cc(C)cc(NC(=O)C2CCCN(c3nnc(-n4c(C)ccc4C)s3)C2)c1 (stereo not drawn) -0.84%
CCCc1ccc(OC(=O)c2sc3ncn(Cc4cccc(F)c4)c(=O)c3c2C)cc1 0.133%
COc1ccc(NC(=O)Cn2c(SCc3c(F)cccc3Cl)nc3ccncc32)cc1OC -4.01%
COCCn1c(SCC(=O)Nc2ccc(Br)cc2)nc2c([nH]c3ccccc32)c1=O -1.63%
CCCCN(C(=O)Nc1ccc(OCC)cc1)C1CCN(C(C)=O)CC1 5.57%
CCN(CC)c1ccc(NC(=O)C2CCCN(S(=O)(=O)c3ccc4c(c3)oc(=O)n4C)C2)c(C)c1 (stereo not drawn) -9.41%
CCC(Sc1nc2n[nH]c(C)c2c(=N)n1-c1ccc(Br)cc1)C(=O)N(CC)CC (stereo not drawn) -8.62%
COc1ccccc1CSc1nc2n(n1)C(c1ccccc1)C(C(=O)Nc1ccc(C)cc1)=C(C)N2 (stereo not drawn) 3.95%
CCOC(=O)c1c(S(=O)(=O)N2CCN(c3cc(Cl)ccc3C)CC2)c(C)n(C)c1C -10.3%
Cc1ccc(NC(=O)C2CCCN(S(=O)(=O)c3ccc(C)cc3)C2)cc1 (stereo not drawn) -4.36%
COc1ccc(NC(=O)Cn2ncc3c4ccccc4n(Cc4ccccc4)c3c2=O)cc1OC 1.7%
COc1cc(NS(=O)(=O)c2ccc3c(c2)OCC(C(=O)N2CCCC2)O3)cc(OC)c1 (stereo not drawn) -0.873%
COc1ccccc1-c1ncnn1-c1sc2c(c1C#N)CCCCC2 4.67%
Cc1ccc(NC(=O)Cn2nc(-c3ccc(Cl)cc3)c3ccccc3c2=O)cc1 -7.09%
COc1ccc(OC)c(S(=O)(=O)NCCc2sc(C)nc2C)c1 -10.1%
Cc1c(Cl)cccc1NC(=O)CCS(=O)(=O)c1cccc2nsnc12 -1.05%
CCCCNC(=O)c1ccc(-c2nc(CN3CCc4ccccc43)c(C)o2)cc1 -4.59%
Cc1cccc(COc2ccc(-c3cc(C(F)(F)F)n4nc(C)cc4n3)cc2)c1 1.92%
Cc1ccc(CNC(=O)CCN2C(=O)C(C)Oc3ccc(C)cc32)cc1 (stereo not drawn) -2.78%
CCc1ccc(-c2nc3cc(NC(=O)c4ccc(F)cc4)ccc3o2)cc1 6.77%
Cc1ccc(NC(=O)CCNS(=O)(=O)c2cccs2)cc1F 10.5%
COc1cccc(-c2nn(C)c3sc(C(=O)N4CCN(c5cccc(C(F)(F)F)c5)CC4)cc23)c1 -8.57%
Cc1cn2c(=O)cc(COC(=O)COc3ccc(F)cc3)nc2s1 -8.98%
CSc1ncc2c(n1)-c1ccccc1N(Cc1ccccc1C)S2(=O)=O 3.84%
COc1ccc(-n2c(=O)c3c(c4cc(OC)ccc4n3C)n(Cc3c(F)cccc3Cl)c2=O)cc1 -4.4%
COc1cccc(CCNC(=O)c2cnc3sc(N4CCCC4)nn3c2=O)c1 -1.48%
Cc1cccc(-n2c3nc(=O)n(C)c(=O)c-3cc3c(C)nn(-c4ccccc4)c32)c1C 0.242%
COC1(C(F)(F)F)NC(=O)N(c2ccc(F)cc2)C1=O (stereo not drawn) 0.968%
CSc1nc2sc3c(c2c(=O)n1-c1ccc(C)cc1)CCCC3 -0.806%
COc1ccc(Cl)cc1NC(=O)N1CCC2(CC1)Oc1ccccc1C(=O)N2Cc1ccc(F)cc1 0.132%
CCOC(=O)C1=C(CN(CC)Cc2ccccc2)NC(=O)NC1c1ccc(Cl)cc1 (stereo not drawn) 1.22%
COc1ccc(NC(=O)N2CCC(n3c(C)nc4cccnc43)CC2)cc1OC 0%
CCOC(=O)c1cnn(-c2cccc(Cl)c2)c1C1CCN(C(=O)OC(C)(C)C)CC1 -8.61%
Cc1ccc(OCCSc2nc3ccc(NC(=O)COc4ccc(C)cc4)cc3s2)cc1 0.65%
CC1CCc2c(sc3nnn(CC(=O)Nc4ccccc4Cl)c(=O)c23)C1 (stereo not drawn) -0.231%
Fc1ccc(NCc2nc3ccccc3n2CCOc2ccccc2Cl)cc1 0%
CCCn1cc(S(=O)(=O)c2ccc(OCC)cc2)c(=O)c2cc(C)ccc21 1.1%
CCCCC(=O)Nc1cc(-c2cn3cccnc3n2)ccc1C -1.18%
CCOc1ccc(-c2c(C)nn3c(C)c(C(=O)NC(C)c4ccccc4)cnc23)cc1OCC (stereo not drawn) -0.979%
Cc1c(-c2cccc(NC(=O)Cc3ccccc3)c2)nc2ncccn12 0%
O=C(CCSCc1ccccc1Cl)NCCc1ccccc1 3.26%
O=C(Cn1ccn(-c2ccc(F)c(F)c2)c(=O)c1=O)NCc1ccccc1 0.13%
Cc1cc(C)c(NC(=O)c2cc(S(=O)(=O)N3CCCC3)cn2C)c(C)c1 -11.7%
COc1cc(Cl)c(S(=O)(=O)N2CCN(c3c(C)cccc3C)CC2)cc1Cl -13.7%
COc1ccc(CNc2nc(-c3ccccc3)nn2C(=O)c2ccccc2OC)cc1 -16.9%
Cc1ccc(OCCSc2nc3ccccc3n2CC(=O)N2CCOCC2)cc1C 0.778%
CCOC(=O)c1cc2c(=O)n3ccccc3nc2n(CC2CCCO2)c1=NC(=O)c1ccc(OCC)cc1 (stereo not drawn) 2.14%
CN(Cc1ccccc1)C(=O)c1c[nH]c2ccc(S(=O)(=O)Nc3ccccc3F)cc2c1=O 4.52%
CCOc1cc(C(=O)N2CC(=O)Nc3ccc(F)cc3C2c2ccccc2)cc(OCC)c1OCC (stereo not drawn) -2.12%
COc1cc2nc(NCCc3ccc(Cl)cc3)n3nc(-c4ccccc4)nc3c2cc1OC -2.05%
CC(C)OCCCNC(=O)Cn1c(-c2cccs2)cc2cc(F)ccc21 0.883%
COc1ccc(N2CCN(CCCNC(=O)c3sc4ncccc4c3-n3cccc3)CC2)cc1 -4.22%
CCN(C(=O)c1nn(C)c2c1CSc1ccccc1-2)c1cccc(C)c1 -1.87%
COc1ccc(NC(=O)Cn2nc(C)c3c(C)n(-c4ccccc4)nc3c2=O)cc1OC -4.63%
COc1cc(C(=O)OCc2cc(=O)n3ccsc3n2)cc(OC)c1OC -11.3%
COc1ccc(S(=O)(=O)NCC(c2ccco2)S(=O)(=O)c2cccs2)cc1OC (stereo not drawn) -2.47%
CCOc1cc(-c2cc(C(=O)O)c3c(-c4ccccc4)[nH]nc3n2)ccc1O 2.7%
Cc1ccc(NC(=O)N(Cc2c[nH]c3ccccc23)C2CCCCCC2)cc1C 2.12%
O=c1n(Cc2ccc([N+](=O)[O-])cc2)c2ccccc2c2nc(-c3ccccc3)nn12 -0.59%
Cn1c(=O)n(C)c2cc(CNCc3ccc(F)cc3)ccc21 -6.32%
Cc1ccc(C(=O)N2CCc3cc(CNC(=O)c4ccccc4F)ccc32)cc1 0.382%
Cc1c(NC(=O)Nc2ccccc2C(F)(F)F)c(=O)n(-c2ccccc2)n1C -8.19%
Cc1cc(C)cc(-n2c(SCC(=O)Nc3ccccc3F)nc3c(oc4ccccc43)c2=O)c1 -10%
CCOc1ccc(NC(=O)c2cccc3c(=O)c4c([nH]c23)CCCC4)cc1 -11.1%
Cc1ccc(Cn2cnc3nc4c(cc3c2=O)CCCC4)cc1 1.03%
O=C(CS(=O)(=O)c1ccc(Cl)cc1)Nc1nc2ccc(Br)cc2s1 -1.21%
COc1ccc(CCNC(=O)CCN2N=C(c3ccccc3)CCC2=O)cc1OC 0.612%
Cc1oc2ncn(CC(C)C)c(=O)c2c1C(=O)N1CCN(c2ccccc2F)CC1 -0.196%
Cc1cc(C)c(NC(=O)CN(c2ccccc2)S(=O)(=O)N(C)C)c(C)c1 12.7%
CSc1ccc(CCNC(=O)CN2C(=O)COc3ccc(S(=O)(=O)N4CCCC4)cc32)cc1 -17.6%
O=C(Nc1ccc2oc(-c3ccc4ccccc4c3)nc2c1)c1cccc(Cl)c1Cl -20.1%
CCOc1ccc(NC(=O)c2cnn3c2NC(c2ccccc2)=CC3c2cccc(OC)c2OC)cc1 (stereo not drawn) -20%
Clc1ccc(-c2nnn3c2nc(N2CCCCC2)c2ccccc23)cc1 2.42%
Cc1ccccc1NC(=O)c1cc2ccccc2o1 -0.0724%
Cc1ccccc1-n1c(=O)c2ccccc2n(Cc2ccc(F)cc2)c1=O -9.92%
COC(=O)c1sc2cccc(F)c2c1S(=O)(=O)NCc1ccc(F)cc1 -16.4%
COc1ccc(C2CC(=O)N(Cc3cccc(C)c3)c3c2c(C)nn3-c2nc(C)cc(C)n2)c(OC)c1 (stereo not drawn) -0.385%
